Consider two molecules from publication PMC5612949.

By UniProt entry, the sequences of proteins in these tests, tags left out.
UniProt Q9UKL0: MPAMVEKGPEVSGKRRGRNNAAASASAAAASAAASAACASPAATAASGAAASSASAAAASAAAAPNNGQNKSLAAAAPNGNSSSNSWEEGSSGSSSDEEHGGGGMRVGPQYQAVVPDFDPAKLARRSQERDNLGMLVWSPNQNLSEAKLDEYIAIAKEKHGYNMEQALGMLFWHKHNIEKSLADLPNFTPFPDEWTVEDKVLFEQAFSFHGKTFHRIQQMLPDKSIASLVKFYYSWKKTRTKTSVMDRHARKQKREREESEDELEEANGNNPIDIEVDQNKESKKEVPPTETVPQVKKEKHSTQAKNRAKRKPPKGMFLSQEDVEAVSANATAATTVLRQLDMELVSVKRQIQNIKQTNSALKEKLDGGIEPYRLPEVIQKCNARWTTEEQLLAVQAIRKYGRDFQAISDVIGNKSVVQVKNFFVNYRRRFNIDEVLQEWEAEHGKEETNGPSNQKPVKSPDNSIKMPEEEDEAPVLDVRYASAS
UniProt Q92769: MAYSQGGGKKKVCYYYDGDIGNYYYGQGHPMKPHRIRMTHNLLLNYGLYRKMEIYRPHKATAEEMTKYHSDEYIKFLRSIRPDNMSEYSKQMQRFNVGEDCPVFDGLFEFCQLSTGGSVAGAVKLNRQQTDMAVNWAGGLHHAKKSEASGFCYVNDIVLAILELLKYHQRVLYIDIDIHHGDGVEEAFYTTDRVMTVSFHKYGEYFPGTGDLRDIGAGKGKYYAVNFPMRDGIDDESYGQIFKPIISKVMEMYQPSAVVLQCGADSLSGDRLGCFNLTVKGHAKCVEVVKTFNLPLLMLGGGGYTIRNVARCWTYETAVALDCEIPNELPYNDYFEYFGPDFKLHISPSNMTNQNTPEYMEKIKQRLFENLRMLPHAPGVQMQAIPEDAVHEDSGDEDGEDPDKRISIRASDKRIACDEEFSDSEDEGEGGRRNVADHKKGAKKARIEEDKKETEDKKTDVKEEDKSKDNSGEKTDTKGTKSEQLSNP
UniProt Q13547: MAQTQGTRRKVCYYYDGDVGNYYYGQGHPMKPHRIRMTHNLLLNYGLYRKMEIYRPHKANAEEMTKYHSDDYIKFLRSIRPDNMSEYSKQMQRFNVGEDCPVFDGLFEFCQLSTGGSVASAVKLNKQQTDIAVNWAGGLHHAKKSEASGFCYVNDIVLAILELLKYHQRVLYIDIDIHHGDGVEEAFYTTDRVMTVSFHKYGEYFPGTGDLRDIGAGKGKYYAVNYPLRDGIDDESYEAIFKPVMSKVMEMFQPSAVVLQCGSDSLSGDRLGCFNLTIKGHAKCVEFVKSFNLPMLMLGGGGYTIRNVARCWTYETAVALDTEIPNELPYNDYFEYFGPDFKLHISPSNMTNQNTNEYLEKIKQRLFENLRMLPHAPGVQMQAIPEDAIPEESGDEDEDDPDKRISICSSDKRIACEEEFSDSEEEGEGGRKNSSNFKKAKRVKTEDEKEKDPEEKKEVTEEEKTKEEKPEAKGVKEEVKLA

Results are given in words; binding and its absence hold for the method and conditions named. Binding seen in cells or lysates may run through a third protein. Some entries that bind do so weakly or less than the wild type.

Test [1] deals with CtBP2 (C-terminal binding protein 2), endogenous (human (endogenous in HEK293T, MCF-7 and MDA-MB-231)) (UniProt P56545). The test can be described thus: co-IP; endogenous proteins, whole-cell lysates of MCF-7 or MDA-MB-231, immunoprecipitation with antibodies against ZNF516 or against the complex components (IgG as control), immunoblotting; lysis buffer 50 mM Tris-HCl pH 7.5, 150 mM NaCl, 0.5% NP-40, 2 mM EDTA, 4 °C. On the technique in general: A western blot detects proteins with antibodies after separation by electrophoresis.

For test [2], the target named is CoREST (corepressor of RE1 silencing transcription factor), endogenous (human (endogenous in HEK293T, MCF-7 and MDA-MB-231)) (UniProt Q9UKL0). The test is described as above.
Another test concerns the target GST-fused CtBP2 (UniProt P56545). The test can be described thus: pull-down; GST fusion protein from E. coli immobilised on glutathione-Sepharose 4B, in vitro transcribed/translated protein (rabbit reticulocyte lysate) added for 2 h at 4 °C; 10 mM HEPES pH 7.6, 3 mM MgCl2, 100 mM KCl, 5 mM EDTA, 5% glycerol, 0.5% CA630; only the target purified.
For a further test, the target named is GST-fused HDAC2 (UniProt Q92769). The description is as above.
Another test has as its target GST-fused HDAC1 (UniProt Q13547). Described as above.
A further test deals with GST-fused CoREST (UniProt Q9UKL0). The test is described as above.

B1: ZNF516, endogenous (protein, UniProt Q92618 1-1163)
chain: MDRNREAEMELRRGPSPTRAGRGHEVDGDKATCHTCCICGKSFPFQSSLSQHMRKHTGEKPYKCPYCDHRASQKGNLKIHIRSHRTGTLIQGHEPEAGEAPLGEMRASEGLDACASPTKSASACNRLLNGASQADGARVLNGASQADSGRVLLRSSKKGAEGSACAPGEAKAAVQCSFCKSQFERKKDLELHVHQAHKPFKCRLCSYATLREESLLSHIERDHITAQGPGSGEACVENGKPELSPGEFPCEVCGQAFSQTWFLKAHMKKHRGSFDHGCHICGRRFKEPWFLKNHMKAHGPKTGSKNRPKSELDPIATINNVVQEEVIVAGLSLYEVCAKCGNLFTNLDSLNAHNAIHRRVEASRTRAPAEEGAEGPSDTKQFFLQCLNLRPSAAGDSCPGTQAGRRVAELDPVNSYQAWQLATRGKVAEPAEYLKYGAWDEALAGDVAFDKDRREYVLVSQEKRKREQDAPAAQGPPRKRASGPGDPAPAGHLDPRSAARPNRRAAATTGQGKSSECFECGKIFRTYHQMVLHSRVHRRARRERDSDGDRAARARCGSLSEGDSASQPSSPGSACAAADSPGSGLADEAAEDSGEEGAPEPAPGGQPRRCCFSEEVTSTELSSGDQSHKMGDNASERDTGESKAGIAASVSILENSSRETSRRQEQHRFSMDLKMPAFHPKQEVPVPGDGVEFPSSTGAEGQTGHPAEKLSDLHNKEHSGGGKRALAPDLMPLDLSARSTRDDPSNKETASSLQAALVVHPCPYCSHKTYYPEVLWMHKRIWHRVSCNSVAPPWIQPNGYKSIRSNLVFLSRSGRTGPPPALGGKECQPLLLARFTRTQVPGGMPGSKSGSSPLGVVTKAASMPKNKESHSGGPCALWAPGPDGYRQTKPCHGQEPHGAATQGPLAKPRQEASSKPVPAPGGGGFSRSATPTPTVIARAGAQPSANSKPVEKFGVPPAGAGFAPTNKHSAPDSLKAKFSAQPQGPPPAKGEGGAPPLPPREPPSKAAQELRTLATCAAGSRGDAALQAQPGVAGAPPVLHSIKQEPVAEGHEKRLDILNIFKTYIPKDFATLYQGWGVSGPGLEHRGTLRTQARPGEFVCIECGKSFHQPGHLRAHMRAHSVVFESDGPRGSEVHTTSADAPKQGRDHSNTGTVQTVPLRKGT
For B1, the binding entry in test [1] and in test [2] was “binds” each time.

B2: in vitro transcribed/translated ZNF516 (protein, UniProt Q92618 1-1163)
chain: B1 chain
B2: the binding result is “binds” in the test with GST-fused CtBP2, “no binding” with GST-fused HDAC2, “no binding” with GST-fused HDAC1 and “binds” with GST-fused CoREST.
